In patent publication EP0034120A1, “Derivatives of phenoxy-phenoxy-carboxylic acids” (CIBA-GEIGY AG, priority 1980, dated 1981):
At least one read-out could not be matched to a standard name with certainty.

Experiments:
Test in all cases: Herbicidal action, post-emergent application (greenhouse)
Assay type in all cases: in vivo
Design in all cases: key: 1 Pflanze abgestorben; 2-4 schwere Schädigung; 3: 2-4 schwere Schädigung; 2-4 schwere Schädigung; 5, 6 mittlere Schäden; 5, 6 mittlere Schäden; 7, 8 leichte Schäden; 7, 8 leichte Schäden; 9 Pflanze gedeiht normal, wie unbehandelte Kontrollpflanze
Conditions in all cases: 15 days after treatment
ipomoea purp. = test system: ipomoea purp.
sinapis alba = test system: sinapis alba
Weizen = test system: Weizen
chenopodium sp. = test system: chenopodium sp.
galium aparine = test system: galium aparine
abutilon sp. = test system: abutilon sp.
Reis = test system: Reis
chrysanthemum l. = test system: chrysanthemum l.
amarantus r. = test system: amarantus r.
viola tricolor = test system: viola tricolor

Measured: Zustand der Pflanzen (EWRC Bewertungsschema)

CCOC(=O)C=CC(C)Oc1cc(Oc2ccc(C(F)(F)F)cc2Cl)ccc1Cl (centres unmarked) [Verbindung No. 1, 4-[3'-(2"-Chlor-4"-trifluormethylphenoxy)-6'-chlorphenoxy]-pent-3-ensäure-äthylester]
1: ipomoea purp.; Aufwandmenge 1/2 kg pro Hektar | ipomoea purp.; Aufwandmenge 1 kg pro Hektar | sinapis alba; Aufwandmenge 1/2 kg pro Hektar | sinapis alba; Aufwandmenge 1 kg pro Hektar | chenopodium sp.; Aufwandmenge 1 kg pro Hektar | abutilon sp.; Aufwandmenge 1 kg pro Hektar | chrysanthemum l.; Aufwandmenge 1/2 kg pro Hektar | chrysanthemum l.; Aufwandmenge 1 kg pro Hektar
3: galium aparine; Aufwandmenge 1/2 kg pro Hektar | galium aparine; Aufwandmenge 1 kg pro Hektar | amarantus r.; Aufwandmenge 1/2 kg pro Hektar
9: Weizen; Aufwandmenge 1/2 kg pro Hektar | Weizen; Aufwandmenge 1 kg pro Hektar | Reis; Aufwandmenge 1/2 kg pro Hektar | Reis; Aufwandmenge 1 kg pro Hektar
2: chenopodium sp.; Aufwandmenge 1/2 kg pro Hektar | abutilon sp.; Aufwandmenge 1/2 kg pro Hektar | amarantus r.; Aufwandmenge 1 kg pro Hektar | viola tricolor; Aufwandmenge 1/2 kg pro Hektar | viola tricolor; Aufwandmenge 1 kg pro Hektar

CCOC(=O)CCC(C)Oc1cc(Oc2ccc(C(F)(F)F)cc2Cl)ccc1Cl (centres unmarked) [Verbindung No. 2, 4-[3'-(2"-Chlor-4-trifluormethylphenoxy)-6'-chlorphenoxy]-valeriansäure-äthylester]
1: ipomoea purp.; Aufwandmenge 1/2 kg pro Hektar | ipomoea purp.; Aufwandmenge 1 kg pro Hektar | sinapis alba; Aufwandmenge 1/2 kg pro Hektar | sinapis alba; Aufwandmenge 1 kg pro Hektar | chenopodium sp.; Aufwandmenge 1 kg pro Hektar | galium aparine; Aufwandmenge 1/2 kg pro Hektar | galium aparine; Aufwandmenge 1 kg pro Hektar | abutilon sp.; Aufwandmenge 1/2 kg pro Hektar | abutilon sp.; Aufwandmenge 1 kg pro Hektar | chrysanthemum l.; Aufwandmenge 1/2 kg pro Hektar | chrysanthemum l.; Aufwandmenge 1 kg pro Hektar | amarantus r.; Aufwandmenge 1/2 kg pro Hektar | amarantus r.; Aufwandmenge 1 kg pro Hektar | viola tricolor; Aufwandmenge 1 kg pro Hektar
9: Weizen; Aufwandmenge 1/2 kg pro Hektar | Reis; Aufwandmenge 1/2 kg pro Hektar
8: Weizen; Aufwandmenge 1 kg pro Hektar | Reis; Aufwandmenge 1 kg pro Hektar
2: chenopodium sp.; Aufwandmenge 1/2 kg pro Hektar | viola tricolor; Aufwandmenge 1/2 kg pro Hektar

COC(=O)CC(=O)C(C)Oc1cc(Oc2ccc(C(F)(F)F)cc2Cl)ccc1Cl (centres unmarked) [compound 3, 4-[3'-(2"-Chlor-4"-trifluormethylphenoxy)-6'-chlorphen-oxy]-propanoylessigsäure-methylester]
1: ipomoea purp.; Aufwandmenge 1/2 kg pro Hektar | ipomoea purp.; Aufwandmenge 1 kg pro Hektar | sinapis alba; Aufwandmenge 1/2 kg pro Hektar | sinapis alba; Aufwandmenge 1 kg pro Hektar | chrysanthemum l.; Aufwandmenge 1/2 kg pro Hektar | chrysanthemum l.; Aufwandmenge 1 kg pro Hektar | amarantus r.; Aufwandmenge 1/2 kg pro Hektar | amarantus r.; Aufwandmenge 1 kg pro Hektar
2: chenopodium sp.; Aufwandmenge 1/2 kg pro Hektar | chenopodium sp.; Aufwandmenge 1 kg pro Hektar | abutilon sp.; Aufwandmenge 1/2 kg pro Hektar | abutilon sp.; Aufwandmenge 1 kg pro Hektar | viola tricolor; Aufwandmenge 1/2 kg pro Hektar | viola tricolor; Aufwandmenge 1 kg pro Hektar
8: Weizen; Aufwandmenge 1 kg pro Hektar
9: Weizen; Aufwandmenge 1/2 kg pro Hektar | Reis; Aufwandmenge 1/2 kg pro Hektar | Reis; Aufwandmenge 1 kg pro Hektar
5: galium aparine; Aufwandmenge 1/2 kg pro Hektar | galium aparine; Aufwandmenge 1 kg pro Hektar

COC(=O)CCC(C)Oc1cc(Oc2ccc(C(F)(F)F)cc2Cl)ccc1Cl (centres unmarked) [compound 5]
9: Weizen; Aufwandmenge 1/2 kg pro Hektar | Weizen; Aufwandmenge 1 kg pro Hektar | Reis; Aufwandmenge 1/2 kg pro Hektar | Reis; Aufwandmenge 1 kg pro Hektar
2: ipomoea purp.; Aufwandmenge 1/2 kg pro Hektar | ipomoea purp.; Aufwandmenge 1 kg pro Hektar | sinapis alba; Aufwandmenge 1/2 kg pro Hektar | sinapis alba; Aufwandmenge 1 kg pro Hektar | chenopodium sp.; Aufwandmenge 1/2 kg pro Hektar | chenopodium sp.; Aufwandmenge 1 kg pro Hektar | chrysanthemum l.; Aufwandmenge 1/2 kg pro Hektar | amarantus r.; Aufwandmenge 1/2 kg pro Hektar
1: chrysanthemum l.; Aufwandmenge 1 kg pro Hektar | amarantus r.; Aufwandmenge 1 kg pro Hektar
4: viola tricolor; Aufwandmenge 1/2 kg pro Hektar
3: galium aparine; Aufwandmenge 1/2 kg pro Hektar | galium aparine; Aufwandmenge 1 kg pro Hektar | abutilon sp.; Aufwandmenge 1/2 kg pro Hektar | abutilon sp.; Aufwandmenge 1 kg pro Hektar | viola tricolor; Aufwandmenge 1 kg pro Hektar

CC(CCC(=O)O)Oc1cc(Oc2ccc(C(F)(F)F)cc2Cl)ccc1Cl (centres unmarked) [compound 6]
1: ipomoea purp.; Aufwandmenge 1/2 kg pro Hektar | ipomoea purp.; Aufwandmenge 1 kg pro Hektar | sinapis alba; Aufwandmenge 1/2 kg pro Hektar | sinapis alba; Aufwandmenge 1 kg pro Hektar | galium aparine; Aufwandmenge 1/2 kg pro Hektar | galium aparine; Aufwandmenge 1 kg pro Hektar | chrysanthemum l.; Aufwandmenge 1 kg pro Hektar | amarantus r.; Aufwandmenge 1 kg pro Hektar | viola tricolor; Aufwandmenge 1/2 kg pro Hektar | viola tricolor; Aufwandmenge 1 kg pro Hektar
8: Reis; Aufwandmenge 1 kg pro Hektar
9: Weizen; Aufwandmenge 1/2 kg pro Hektar | Weizen; Aufwandmenge 1 kg pro Hektar | Reis; Aufwandmenge 1/2 kg pro Hektar
2: chenopodium sp.; Aufwandmenge 1/2 kg pro Hektar | chenopodium sp.; Aufwandmenge 1 kg pro Hektar | abutilon sp.; Aufwandmenge 1/2 kg pro Hektar | abutilon sp.; Aufwandmenge 1 kg pro Hektar | chrysanthemum l.; Aufwandmenge 1/2 kg pro Hektar | amarantus r.; Aufwandmenge 1/2 kg pro Hektar

CCNC(=O)CCC(C)Oc1cc(Oc2ccc(C(F)(F)F)cc2Cl)ccc1Cl (centres unmarked) [compound 7]
7: Reis; Aufwandmenge 1/2 kg pro Hektar
2: galium aparine; Aufwandmenge 1/2 kg pro Hektar
1: ipomoea purp.; Aufwandmenge 1/2 kg pro Hektar | ipomoea purp.; Aufwandmenge 1 kg pro Hektar | sinapis alba; Aufwandmenge 1/2 kg pro Hektar | sinapis alba; Aufwandmenge 1 kg pro Hektar | chenopodium sp.; Aufwandmenge 1/2 kg pro Hektar | chenopodium sp.; Aufwandmenge 1 kg pro Hektar | galium aparine; Aufwandmenge 1 kg pro Hektar | abutilon sp.; Aufwandmenge 1/2 kg pro Hektar | abutilon sp.; Aufwandmenge 1 kg pro Hektar | chrysanthemum l.; Aufwandmenge 1/2 kg pro Hektar | chrysanthemum l.; Aufwandmenge 1 kg pro Hektar | amarantus r.; Aufwandmenge 1/2 kg pro Hektar | amarantus r.; Aufwandmenge 1 kg pro Hektar | viola tricolor; Aufwandmenge 1/2 kg pro Hektar | viola tricolor; Aufwandmenge 1 kg pro Hektar
8: Weizen; Aufwandmenge 1/2 kg pro Hektar
6: Weizen; Aufwandmenge 1 kg pro Hektar | Reis; Aufwandmenge 1 kg pro Hektar

CCOC(=O)C=CC(C)Oc1cc(Oc2ccc(C(F)(F)F)cc2Br)ccc1Cl (centres unmarked) [compound 15]
1: ipomoea purp.; Aufwandmenge 1/2 kg pro Hektar | ipomoea purp.; Aufwandmenge 1 kg pro Hektar | sinapis alba; Aufwandmenge 1/2 kg pro Hektar | sinapis alba; Aufwandmenge 1 kg pro Hektar | chenopodium sp.; Aufwandmenge 1/2 kg pro Hektar | chenopodium sp.; Aufwandmenge 1 kg pro Hektar | abutilon sp.; Aufwandmenge 1/2 kg pro Hektar | abutilon sp.; Aufwandmenge 1 kg pro Hektar | chrysanthemum l.; Aufwandmenge 1/2 kg pro Hektar | chrysanthemum l.; Aufwandmenge 1 kg pro Hektar | amarantus r.; Aufwandmenge 1/2 kg pro Hektar | amarantus r.; Aufwandmenge 1 kg pro Hektar | viola tricolor; Aufwandmenge 1/2 kg pro Hektar | viola tricolor; Aufwandmenge 1 kg pro Hektar
2: galium aparine; Aufwandmenge 1/2 kg pro Hektar | galium aparine; Aufwandmenge 1 kg pro Hektar
9: Weizen; Aufwandmenge 1/2 kg pro Hektar | Weizen; Aufwandmenge 1 kg pro Hektar | Reis; Aufwandmenge 1/2 kg pro Hektar | Reis; Aufwandmenge 1 kg pro Hektar
